Measurements: paper PMC2997436 (Journal of medicinal chemistry, 2010)

Columns and labels:
rat α4β2 nAChR = rat α4β2 nAChR (Rattus norvegicus, UniProt P09483+P12390); format: binding; settings: upto 100 µM concentrations
α7 nAChR = α7 nAChR (Rattus norvegicus, UniProt Q05941); format: binding

SMILES | affinity for α4β2 nAChR (in words) (rat α4β2 nAChR) | affinity for α7 nAChR (in words) (α7 nAChR)
CN1C2CCC1CC(N1C(=O)Cc3ccccc31)C2 (stereo not shown) [Compound 4] | no affinity | no affinity
CN1C2CCCC1CC(N1C(=O)Cc3ccccc31)C2 (stereo not shown) [Compound 5, 1-(9-methyl-9-azabicyclo[3.3.1]non-3-yl)-1,3-dihydro-2H-indol-2-one] | no affinity | no affinity
